Consider 9 molecules from publication PMC9911399, “Two distinct binding modes provide the RNA-binding protein RbFox with extraordinary sequence specificity”.

The chains are these.
T1: RBFOX1 RRM (Homo sapiens, UniProt Q9NWB1 109-208)
T1 sequence: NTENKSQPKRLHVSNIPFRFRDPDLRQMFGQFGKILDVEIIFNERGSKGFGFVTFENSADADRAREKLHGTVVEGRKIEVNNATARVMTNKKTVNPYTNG

B1: GGCAAUC (DNA:RNA)
RNA: GGGAGACCGGAAUUCAGAUUGUCCGGCAAUCUUAAAUCCCGUCGUAGCCACCA
DNA 1: CAATCTGAATTCCGGTCTCCC
DNA 2: TGGTGGCTACGACGGGATT
B2: GCUGGUG (DNA:RNA)
RNA: B1 RNA with G26C, C27U, A28G, A29G, C31G
DNA 1: CAATCTGAATTCCGGTCTCCC
DNA 2: TGGTGGCTACGACGGGATT
B3: CACGGAU (DNA:RNA)
RNA: B1 RNA with G25C, G26A, A28G, A29G, U30A, C31U
DNA 1: CAATCTGAATTCCGGTCTCCC
DNA 2: TGGTGGCTACGACGGGATT
B4: ACCUAAU (DNA:RNA)
RNA: B1 RNA with G25A, G26C, A28U, U30A, C31U
DNA 1: CAATCTGAATTCCGGTCTCCC
DNA 2: TGGTGGCTACGACGGGATT
B5: UGAUAAG (DNA:RNA)
RNA: B1 RNA with G25U, C27A, A28U, U30A, C31G
DNA 1: CAATCTGAATTCCGGTCTCCC
DNA 2: TGGTGGCTACGACGGGATT
B6: AAAAAGA (DNA:RNA)
RNA: B1 RNA with G25A, G26A, C27A, U30G, C31A
DNA 1: CAATCTGAATTCCGGTCTCCC
DNA 2: TGGTGGCTACGACGGGATT
B7: ACCGGGC (DNA:RNA)
RNA: B1 RNA with G25A, G26C, A28G, A29G, U30G
DNA 1: CAATCTGAATTCCGGTCTCCC
DNA 2: TGGTGGCTACGACGGGATT
B8: GGGGUCU (DNA:RNA)
RNA: B1 RNA with C27G, A28G, A29U, U30C, C31U
DNA 1: CAATCTGAATTCCGGTCTCCC
DNA 2: TGGTGGCTACGACGGGATT
B9: CAACAGA (DNA:RNA)
RNA: B1 RNA with G25C, G26A, C27A, A28C, U30G, C31A
DNA 1: CAATCTGAATTCCGGTCTCCC
DNA 2: TGGTGGCTACGACGGGATT

Residue numbers refer to the chain shown, from its start. The list shows a part of the results.

The target in the assay is T1, RBFOX1 RRM. The experiment in a line: EMSA; HiTS-Eq, 1 nM pool, 10 min; buffer printed only for the single-RNA assays: 10 mM Tris pH 7.5, 150 mM NaCl, 3.4 mM EDTA, 0.001% NP-40, 30 C. The conditions noted are these: tags: His6 N-terminal (pET28a); label: 5' 32P. Summed up: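 These values rest on relative association constants, computed from read-count changes of each RNA species versus the control reaction and normalised to the cognate motif. Reads came from free RNA recovered by 8% native PAGE after purified RbFox RRM (wild type or mutant) at increasing concentrations was equilibrated for 10 min in 50 µL with 1 nM of a 5′-radiolabelled pool with 7 randomized nucleotides and DNA-annealed flanks.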
In general terms: A gel shift assay detects complexes by their altered migration in electrophoresis.
In the case of B1, the binding signal is 0.0087 KA relative to UGCAUGU.

B2: the binding signal is 0.029 KA relative to UGCAUGU.

On to B3, for which the binding signal was 0.00762 KA relative to UGCAUGU.

With B4, the binding signal was 0.000495 KA relative to UGCAUGU.

Consider B5, for which the binding signal is 0.0175 KA relative to UGCAUGU.

With B6, the binding signal was 0.00137 KA relative to UGCAUGU.

For B7, the binding signal is 0.0122 KA relative to UGCAUGU.

For the molecule B8, the binding signal was 0.0436 KA relative to UGCAUGU.

Consider B9, for which the binding signal was 0.00385 KA relative to UGCAUGU.
